The whole screen tested about 310,000 compounds, of which about 2,200 (0.71%) showed an effect of 50% or more. The effect is printed as a negative number. The list shows a part of the results.
target: human ether-à-go-go-related gene (hERG) potassium channel (human, UniProt Q12809); test: primary screen, population patch clamp on CHO cells stably expressing hERG
Sequence (Q12809 whole entry, looked up): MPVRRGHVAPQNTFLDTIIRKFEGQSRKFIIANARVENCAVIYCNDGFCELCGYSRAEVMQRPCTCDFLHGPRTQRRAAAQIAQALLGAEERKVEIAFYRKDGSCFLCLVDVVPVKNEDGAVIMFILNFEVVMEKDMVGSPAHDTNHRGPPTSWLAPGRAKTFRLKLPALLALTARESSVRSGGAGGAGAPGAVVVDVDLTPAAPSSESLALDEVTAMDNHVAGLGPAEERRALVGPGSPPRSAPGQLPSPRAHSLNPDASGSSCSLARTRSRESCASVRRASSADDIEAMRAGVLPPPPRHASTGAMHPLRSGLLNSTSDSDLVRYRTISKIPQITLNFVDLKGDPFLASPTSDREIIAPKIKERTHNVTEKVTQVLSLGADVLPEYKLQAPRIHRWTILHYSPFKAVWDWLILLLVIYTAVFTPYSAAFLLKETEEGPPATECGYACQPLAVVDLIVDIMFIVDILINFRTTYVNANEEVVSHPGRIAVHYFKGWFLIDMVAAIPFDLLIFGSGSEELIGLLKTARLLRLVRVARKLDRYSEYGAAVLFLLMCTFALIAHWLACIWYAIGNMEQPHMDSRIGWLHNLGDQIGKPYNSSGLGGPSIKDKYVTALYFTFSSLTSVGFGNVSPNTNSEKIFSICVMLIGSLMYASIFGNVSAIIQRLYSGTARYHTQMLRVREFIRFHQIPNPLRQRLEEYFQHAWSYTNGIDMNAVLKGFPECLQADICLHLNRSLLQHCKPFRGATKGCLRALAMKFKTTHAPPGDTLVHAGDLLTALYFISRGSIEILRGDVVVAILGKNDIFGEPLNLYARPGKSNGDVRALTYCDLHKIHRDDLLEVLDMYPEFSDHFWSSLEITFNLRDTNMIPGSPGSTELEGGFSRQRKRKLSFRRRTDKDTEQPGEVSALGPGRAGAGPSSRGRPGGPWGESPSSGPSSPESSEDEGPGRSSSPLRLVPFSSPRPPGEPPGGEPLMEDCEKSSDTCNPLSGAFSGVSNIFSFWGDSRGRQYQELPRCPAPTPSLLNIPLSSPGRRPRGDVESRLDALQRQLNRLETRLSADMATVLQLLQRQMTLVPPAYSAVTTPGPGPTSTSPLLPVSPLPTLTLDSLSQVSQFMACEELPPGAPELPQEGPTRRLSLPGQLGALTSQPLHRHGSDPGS

| SMILES | hERG current change (%, negative = inhibition) at 1uM [%] |
| --- | --- |
| O/N=C/c1ccc(OCC(O)COc2ccc(/C=N/O)cc2)cc1 | -18.6 |
| NC(=O)c1ccc(N=C2C(=O)Nc3ccc([N+](=O)[O-])cc32)cc1 | 13.3 |
| Cc1ccccc1CSCCNC(=O)Nc1ccccc1 | 13.1 |
| Clc1ccccc1Cn1nc(-c2ccccc2)nc1-c1ccccc1 | 7.67 |
| Cc1sc2ncnc(N[C@@H](Cc3ccccc3)C(=O)O)c2c1C | 1.61 |
| COc1ccc(-n2cc(-c3ccc(OC)c(OC)c3)[nH]c2=S)cc1 | 13 |
| CC(=O)Nc1ccc(SCC(=O)O)cc1 | 5.4 |
| COc1ccc2c(C)nc(N/C(N)=N/S(=O)(=O)c3ccc(C)cc3)nc2c1 | 10.4 |
| Cc1cc(NC(=O)CSc2nc(-c3cccnc3)ccc2C#N)no1 | 10.7 |
| O=C(O)c1ccc(-c2noc(-c3ccc(F)cc3)n2)cc1 | 13.5 |
| O=C(NN1C(=O)c2ccccc2C1=O)C1C2CCCCC21 (stereo not shown) | 10.5 |
| COc1ccc(Cl)cc1NC(=O)c1ccc2c(SCC(=O)O)c3c(nc2c1)CCCC3 | 19.2 |
| CCCNC(=O)N1C2CCC1CC(O)(c1cccnc1)C2 (stereo not shown) | 2.34 |
| COc1ccc(NS(=O)(=O)c2cc(NC(=O)c3ccc(=O)[nH]n3)ccc2N2CCOCC2)cc1 | 0.0942 |
| COc1ccccc1NC(=O)N1CCCC1C(=O)Nc1nnc(C(C)C)s1 (stereo not shown) | -1.75 |
| CCCCc1c(O)nc(SCC(=O)c2ccccc2)n(-c2ccccc2OC)c1=O | 11.7 |
| O=C(NCC1CCCO1)C(=O)c1c[nH]c2ccccc12 (stereo not shown) | -6.28 |
| N=C1C(c2nc3ccccc3s2)=C(O)CN1NC(=O)c1ccccc1[N+](=O)[O-] | 17.8 |
| COC(=O)c1ccc(Cl)cc1N(Cc1c(F)cccc1Cl)S(C)(=O)=O | 2.41 |
| CCOC(=O)c1sc(NS(=O)(=O)c2ccc(C)cc2)nc1C | 0.546 |
| COCCn1c(Cc2ccccc2)nnc1SCC(=O)NC(C)C | 0.736 |
| CC(c1ccco1)N(C(=O)c1ccccc1F)c1ccccn1 (stereo not shown) | 2.74 |
| CS(=O)(=O)N(CC(=O)N1CCCCCC1)c1cc(Cl)ccc1Cl | 18.7 |

| SMILES | hERG current change (%, negative = inhibition) at 1uM [%] |
| --- | --- |
| COc1ccc(C(=O)c2cnc[nH]2)cc1 | 10.8 |
| Cc1ccc(-c2ccc(=O)n(CC(=O)NCc3ccco3)n2)cc1 | -0.208 |
| COc1ccc(C(=O)C2CCCN(Cc3nc4ccccc4nc3C)C2)cc1OC (stereo not shown) | -83.3 |
| O=C(Nc1ccccc1)C1=C(O)CC(c2ccco2)CC1=Nc1ccccc1 (stereo not shown) | 17 |
| O=C(O)c1ccc(N/N=C/c2cc(Br)cs2)cc1 | 18.1 |
| Cc1nc(=S)n(-c2ccccc2)[nH]1 | 14.4 |
| Cc1cc(CNC(=O)[C@H](C)[C@@H]2C[C@@]2(C)[C@@H](NC(=O)OCc2ccccc2)c2ccccc2)nn1C | 7.5 |
| CN(Cc1ccccc1)C1CC(=O)N(c2ccc(C(=O)O)cc2)C1=O (stereo not shown) | 5.74 |
| CCOc1ccc(C2C(C(=O)c3cccs3)=C(O)C(=O)N2CCN2CCOCC2)cc1 (stereo not shown) | -1.11 |
| COc1cc2c(cc1OC)C(C)N(C(=O)C(NC(=O)c1ccccc1)C(C)C)CC2 (stereo not shown) | 7.28 |
| Cc1cc(C)c(S(=O)(=O)N2CCCOC2CNC(=O)C(=O)NCc2cccnc2)c(C)c1 (stereo not shown) | 11.6 |
| COCCNC(=O)/C(C#N)=C/c1ccc(SC)cc1 | 9.79 |
| CN(c1ccccc1C(=O)Nc1ccc2c(c1)n(C)c(=O)n2C)S(C)(=O)=O | 15.4 |
| CN(CCCNC(=O)CCC(=O)N1CCOc2ccccc21)Cc1ccccc1 | 0.0159 |
| O=c1c2ccccc2nc(-c2cccs2)n1-c1ccccc1 | 11.9 |
| O=C(O)c1sccc1Oc1ccc(F)cc1[N+](=O)[O-] | -4.56 |
| CC(Oc1ccccc1)c1ccn[nH]1 (stereo not shown) | 21.1 |
| C=CCc1cc(/C=C2/NC(=O)N(CC(=O)OC)C2=O)cc(OC)c1O | 11.6 |
| Cc1occc1-c1nnc(SCC(=O)N2CCOCC2)n1Cc1ccco1 | 17.9 |
| Fc1ccccc1OCCCN1CCOCC1 | 8.04 |
| CCn1c(Cc2ccccc2)nnc1SCC(=O)Nc1ccccc1O | 11.4 |
| CCOC(=O)Cc1c(C)nc(Cc2ccc(OC(C)C)cc2)[nH]c1=O | 6.06 |
| COc1cc(CC(=O)N2CCC(n3nccc3NC(=O)C3CC3)CC2)cc(OC)c1OC | 10.8 |

| SMILES | hERG current change (%, negative = inhibition) at 1uM [%] |
| --- | --- |
| O=c1cc(O)c2sc(Nc3ccc(F)cc3)nc2[nH]1 | 4.62 |
| O=C(O)c1ccc(CSc2nc(-c3ccccc3)cc(C(F)(F)F)n2)cc1 | 8.91 |
| Cc1cc(SCc2ccc(Cl)c(Cl)c2)nc(=O)[nH]1 | 8.49 |
| CCc1c(C)nc(N)nc1Cl | 13.2 |
| Cc1ccc(S(=O)(=O)N2CCCCC2CCNC(=O)C(=O)NCc2ccccc2)cc1 (stereo not shown) | 12.7 |
| CCCCOc1ccc(C(=O)N2CCN(c3ncccn3)CC2)cc1 | 3.25 |
| O=C(O)c1ccc2c(c1)SC1=NS(=O)(=O)CCN12 | 7.46 |
| O=c1[nH]c(-c2ccco2)nc2sc3c(c12)CCCC3 | 14.7 |
| COc1ccc(/C(O)=C2/C(=O)C(=O)N(CC3CCCO3)C2c2ccc(O)c(OC)c2)cc1 (stereo not shown) | 13.2 |
| CC(C)NC(=O)c1onc(CSc2cccc(F)c2)c1C(=O)O | 13.3 |
| Cc1nnc(SC(C)C(=O)Nc2ccc3c(c2)OCCO3)s1 (stereo not shown) | 15.2 |
| COCCN(Cc1ccccc1)C(=O)c1cc(-c2ccc(OC)c(OC)c2)nc2ccccc12 | 6.54 |
| Brc1cccc(CN2CCCCCC2)c1 | 13.2 |
| COCCCNCCCCOc1ccc(Br)cc1Cl.O=C(O)C(=O)O | -61.5 |
| Cc1ccc(NCc2nnc(SCC(=O)OC3CCCCC3)o2)c(C)c1 | 14.3 |
| CN(C)/C=C(/C(=O)c1ccc(Cl)cc1Cl)S(=O)(=O)c1ccccc1 | 10.6 |
| Cc1ccc(CCNS(=O)(=O)c2cnc[nH]2)cc1 | 4.11 |
| CC(C)c1ccc(O)c(CN2CCN(c3ccccc3)CC2)c1 | 10.3 |
| O=C1C2C3C=CC(C4CC34)C2C(=O)N1CCc1ccccc1 (stereo not shown) | 6.26 |
| COc1cccc(NC(=O)C2CCN(C(=O)[C@@H]3Cc4ccccc4CN3C(=O)OC(C)(C)C)CC2)c1 | 19.4 |
| CC(=O)Nc1ccc(C(=O)NN2C(=O)c3ccccc3C2=O)cc1 | 8.27 |
| O=C(COC(=O)c1ccc(S(=O)(=O)N2CCOCC2)cc1)NC1CCCC1 | 0.799 |
| Nc1nc(CSc2nnnn2-c2ccccc2)nc(N2CCCc3ccccc32)n1 | 9.2 |

| SMILES | hERG current change (%, negative = inhibition) at 1uM [%] |
| --- | --- |
| Cc1cc(C(=O)Oc2ccccc2C(=O)O)c(C)o1 | 11 |
| O=C(C[n+]1ccccc1)N/N=C/c1c(F)cccc1Cl.[Cl-] | 8.73 |
| Cc1cc(C)c2nc(N3CCC(C(=O)N4CCN(C(=O)c5ccco5)CC4)CC3)sc2c1 | -46.9 |
| CCOC(=O)c1ccc(Nc2cc(C)nc(-c3ccccc3O)n2)cc1 | 10.3 |
| CSCCC(NC(=O)c1ccco1)C(=O)NCc1ccc(F)cc1 (stereo not shown) | 6.66 |
| COc1cc(OC)cc(C(=O)Nc2cc(C)on2)c1 | 18.2 |
| CC1CC2(CCCCC2)Nc2ccc3ccccc3c21.Cl (stereo not shown) | 9.44 |
| COc1cc2cc(C(=O)N3CCc4ccccc4C3)[nH]c2cc1OC | 7.7 |
| COC(=O)C1=C(c2cc3ccccc3o2)C[C@@H]2CC[C@H]1N2C | 6.69 |
| CCOC(=O)C1=C(c2ccccc2)NC(N)=NC1c1ccc(OCc2ccc(C(=O)OC)cc2)cc1 (stereo not shown) | 3.19 |
| COc1ccc(S(=O)(=O)N2CCN(S(=O)(=O)c3ccc(C(F)(F)F)cc3)CC2)cc1C | 4.99 |
| COc1ccc(Cl)cc1NC(=O)C/C(C)=N/NC(=O)Cc1ccccc1 | 7.06 |
| COc1cccc(/C(C)=N/Nc2ncc(Cl)cc2Cl)c1 | 3.21 |
| CCc1nnc(NC(=O)CN2CC(C)OC(C)C2)s1 (stereo not shown) | 13.3 |
| O=C(Cc1ccccc1)Oc1ccccc1N1C(=O)CCC1=O | 8.09 |
| CCOc1ccc(/C=C(/NC(=O)c2ccc(Cl)cc2)C(=O)O)cc1OCC | -4.42 |
| Cc1ccccc1NC(=O)NCCCN1CCN(C2CCCCC2)CC1 | 1.86 |
| CC(C)C(OC(=O)/C=C/c1ccc2c(c1)OCO2)C(=O)NC(N)=O (stereo not shown) | 5.82 |
| COc1ccc2c(c1)C(C)(CCN)C(=O)N2C (stereo not shown) | 5.06 |
| O=S1(=O)NC[C@]23C[C@H](c4ccc(F)cc4)[C@@H](C[C@@H]21)O3 | 8.17 |
| CC(C)OC(=O)c1cc(C(=O)c2cc(Br)ccc2O)coc1=N | 10.1 |
| O=C(O)/C=C/c1cccc(NC(=O)c2ccccc2)c1 | 6.3 |
